Test results published in PubChem BioAssay AID1508623 (National Center for Advancing Translational Sciences (NCATS), 2021).
Among all 48,000 compounds or so, about 450 (0.94%) were called active. About 19% were inconclusive and are not listed. The call rests on the fitted dose curve; in most records, active means well fitted inhibition curve with a large enough effect; inconclusive means small, poorly fitted or top-dose-only effect; inactive means no such curve, though single readings can be large or run the other way. Some of the results follow.

Assay: Primary qHTS for Identification of Small Molecule Inhibitors of Huntingtin Promoter Activity; further: nearly all actives have a fitted effect of over 50% in size
Settings: HEK293 HTT promoter firefly luciferase reporter (activity 0% = vehicle and -100% = no light), 24 h; series mostly up to 57.5 µM; activity change, negative = inhibition: at the top concentration
Outline: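 HEK293 Fluc reporter, 2,500 cells/well, 24 h pre-culture; cpds up to 57.5 uM final, 24 h 37 degrees C; Dual-Glo, 10 min RT; normalized vehicle = 0%, zero RLU = -100%.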

Activity change, negative = inhibition, inactive:
CCCCN(CCCNC(=O)c1c(C)oc2nc[nH]c(=O)c12)Cc1ccccc1 -15.2%
CNC(=O)c1c(NC(=O)c2ccc(S(=O)(=O)N3CCCCC3C)cc2)sc2c1CCC2 (configuration not stated) -16%
Cc1ccc(Nc2c(-c3cccnc3)nc3ccc(Br)cn23)cc1 14.3%
COc1ccc(-c2nnc(SCC(=O)N(C)Cc3ccccc3)o2)cc1OC -0.563%
COc1cccc(N2CCN(C(=O)CN3C(=O)COc4ccc(S(=O)(=O)N5CCC(C)CC5)cc43)CC2)c1 -12.6%
COc1ccc(C)cc1-n1nnc(C(=O)Nc2cccc(SC)c2)c1C -28.4%
COc1ccc(C(=O)NCC(c2cccnc2)N2CCc3ccccc32)cc1OC (configuration not stated) -26.4%
Cc1cccc(CNC(=O)c2ccc(NC(=O)N3CCSc4ccccc43)cc2)c1 -19.8%
CC1CCc2c(sc(NC(=O)COc3ccccc3C(C)(C)C)c2C#N)C1 (configuration not stated) -8.17%
Cc1ccc(NC(=O)Cn2c(SCc3ccc(F)cc3)nc3cccnc32)cc1F -13.8%
O=C(NCCCN1CCN(c2ccccc2F)CC1)c1cc2c(s1)-c1ccccc1OC2 -26.8%
O=C(O)c1ccc(NC(=O)c2cc3ccccc3o2)cc1 40.6%
CCc1ccc(-n2nc(C)c3c(C)cc(=O)n(CC(=O)Nc4ccccc4C(=O)OC)c32)cc1 -3.49%
CCCCOc1ccc(C(=O)N/C(=C\c2ccc(Br)cc2)C(=O)NC2CCCCC2)cc1 5.93%
CSCCC(NS(=O)(=O)c1ccc2c(c1)oc(=O)n2C)C(=O)N1CCN(c2ccc(F)cc2)CC1 (configuration not stated) 2.9%
Cc1cccc(-n2ccnc2SCC(=O)Nc2ccc3c(c2)OCO3)c1 -19.6%
O=C(Nc1cccc(F)c1)C1CCN(c2nc3ccccc3[nH]2)CC1 5.11%
CCc1cccc(NC(=O)CCS(=O)(=O)c2ccc3nc(C)sc3c2)c1 -11.2%
COc1ccc(CNc2ncnc3c2cnn3-c2ccc(C)c(C)c2)cc1 33.3%
COc1ccc(CN2C(=O)c3oc4ccccc4c(=O)c3C2c2ccc(O)c(OC)c2)cc1 (configuration not stated) 2.67%
CCCCSCCCNC(=O)C1CCC(CNS(=O)(=O)c2c(C)cc(C)cc2C)CC1 (configuration not stated) -4.5%
CCOc1ccc(CNC(=O)c2ccc3c(c2)nc2n3CCC(C)C2)cc1OC (configuration not stated) -19.7%
COc1cccc(C(=O)NC2CC(=O)N(c3ccc4c(c3)OCCO4)C2)c1OC (configuration not stated) -1.09%
Cc1csc2nc(CCNS(=O)(=O)c3ccc(F)cc3)cn12 -3.55%
O=C(CCOc1ccccc1)N(Cc1cccnc1)c1nc2ccc(F)cc2s1 18.7%
CCOC(=O)c1c(NC(=O)c2ccc(OC)c(OC)c2)sc2c1CCCCC2 -0.947%
O=C(Nc1ccc2oc(-c3ccc(Cl)cc3)nc2c1)c1ccc2ccccc2c1 -7.88% [at 11.5 µM]
